Data on 82 compounds can be found in ChEMBL document CHEMBL1201862, “PubChem BioAssay data set” (2004).

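Dose response: 5 concentrations. Exposure: 48 h. Format: 96-well plates. Endpoint: linear interpolation; highest concentration if not reached. GI50: concentration for 50% inhibition of growth.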 Activity calls are given as the source filed them. No stated cut-off is given here; in the data, active = GI50 up to about 1.1 µM and inactive = higher.

For this experiment, the system named is NCI-H322M. Put plainly: NCI tumour cell line growth inhibition, 48 h.
On to `CCCCCCCCC/C=C1/CC(CO)(COC(=O)CC(C(C)C)C(C)C)OC1=O` (configuration not stated), for which the GI50 was inactive: 12.7 µM.

As for `COC1=CC(=O)c2c(cc(COP(=O)(N(C)CCBr)N(C)CCBr)n2C)C1=O`, the GI50 is inactive: 2.3 µM. For the compound `CCOC(=O)Nc1nc2cc(Cn3cccc3)ccc2[nH]1`, the GI50 is inactive: 4.17 µM. The value for `COC(=O)c1c[nH]c2c1-c1cc(C(=O)OCc3ccccc3)n(S(=O)(=O)c3ccc(C)cc3)c1C(=O)C2=O` was active: 0.45 µM; that for `O=C(CC(=O)Nc1ccccc1O)Nc1ccccc1O` was inactive: > 100 µM; that for `CN(C)c1ccc(/C=C2\C=Cc3ccccc32)cc1` was inactive: > 100 µM. The value for `CCOC(=O)C(C)c1nc2cc3cccnc3c(Cl)c2[nH]c1=O` (configuration not stated) was inactive: > 100 µM; that for `CCOC(=O)C(C)(C)Oc1ccc2c(=O)cc(-c3ccc(Cl)cc3)oc2c1` was inactive: > 100 µM.

Consider `Oc1ccc(C[C@@H]2CN[C@H](Cc3ccc(O)c(Br)c3)CN2)cc1`, for which the GI50 is inactive: > 100 µM. Consider `CCCCCC(O)(CCCCC)CCCCCCCCC1=C(O)C(=O)c2ccc(=O)[nH]c2C1=O`, for which the GI50 was inactive: 4.33 µM. The value for `CC(C)CCC1(O)O[C@H]2C[C@H]3[C@@H]4CCC5CC(=O)C=C[C@]5(C)[C@H]4CC[C@]3(C)[C@H]2[C@@H]1C` (some centres not stated) was inactive: 14.5 µM; that for `C=C(c1nc2ccc(Cl)cc2[nH]c1=O)C(O)c1ccc(C(O)C(=O)c2nc3ccc(Cl)cc3[nH]c2=O)cc1` (configuration not stated) was inactive: > 100 µM. As to `Nc1ccc(Oc2ccc(C34CC5CC(C3)CC(c3ccc(Oc6ccc(N)cc6C(F)(F)F)cc3)(C5)C4)cc2)c(C(F)(F)F)c1`, the GI50 was inactive: 20 µM. With `COC1(OC)c2ccccc2C2(O)c3ccccc3C(=O)C12` (configuration not stated), the GI50 was inactive: 95.3 µM. The same measure for `Nc1cccc2c1C1=NNC(=O)CC1C2` (configuration not stated): inactive: > 100 µM. In the case of `C1=CC2=CC=CC3c4nc5ccc6ccccc6c5nc4C(=C1)C23` (configuration not stated), the GI50 is inactive: > 100 µM. Take `O=[N+]([O-])c1ccc(Cl)c2c([N+](=O)[O-])cccc12`: the GI50 was inactive: 4.32 µM. As to `N/N=C(/C=C1\C(=O)Nc2ccccc21)c1ccccc1`, the GI50 is inactive: 47.9 µM. For the compound `COC(=O)c1cc2c(cc1CC(Cc1ccc3c(c1)CCCC3)C(=O)OC)CCCC2` (configuration not stated), the GI50 is inactive: > 100 µM.

With `CC1=CC(=O)/C(=C/N2C(=O)CNC2=S)C(=O)O1`, the GI50 is inactive: > 100 µM. The same measure for `O=C(c1ccccc1)c1nc2ccc(Cl)cc2c2c1Cc1ccccc1-2`: inactive: > 100 µM; for `Cc1cc(NCCCCCCCCNc2cc(C)nc3cc(N(C)C)ccc23)c2ccc(N(C)C)cc2n1`: inactive: 6.04 µM.

For the compound `O=c1cc(O)cc2n1CCC2`, the GI50 was inactive: > 100 µM. With `c1csc(C(NC2=NCCO2)C2CC2)c1` (configuration not stated), the GI50 was inactive: > 100 µM. The value for `O=C1C2ON3c4ccccc4C(=O)C3(c3ccccc3)C2C(=O)N1c1ccccc1` (configuration not stated) was inactive: > 100 µM; that for `c1cc2c3ccsc3c3sccc3c2s1` was inactive: > 100 µM.

As for `C=CC(Br)(CBr)CCC(Br)C(C)C` (configuration not stated), the GI50 is inactive: 15.7 µM.

With `Cc1cc(=O)n2nc(CSc3nnc(N)s3)sc2n1`, the GI50 was inactive: > 100 µM. The value for `Cc1ccccc1Nc1nc2ccccc2nc1NS(=O)(=O)c1ccccc1` was inactive: > 100 µM; that for `Cc1ccc(C(=O)C2CC3(CCC2(O)c2ccc(C)cc2)CC(=O)Nc2ccccc2C3=O)cc1` (configuration not stated) was inactive: 63.5 µM. The same measure for `NNS(=O)(=O)c1ccc(/C=C2\NC(=O)NC2=O)cc1`: inactive: > 100 µM; for `S=c1sc2c(s1)SCc1cccc(n1)CSc1sc(=S)sc1SCc1cccc(n1)CS2`: inactive: > 100 µM.

Take `CCOC(=O)CSc1nc(-c2ccc(Cl)cc2)c(C#N)c(=O)[nH]1`: the GI50 is inactive: > 100 µM. The value for `[O-][S+](Cc1ccccc1)c1ccccc1Cn1cccc1` (configuration not stated) was inactive: > 100 µM; that for `CN(C)c1ccc(/C=N/CC2CCCN3CCCCC23)cc1` (configuration not stated) was inactive: > 100 µM.

In the case of `O=c1[nH]nc(-c2ccccc2)c2[nH]c3c(c12)CCCc1ccccc1-3`, the GI50 is inactive: 20.4 µM. The value for `COc1ccc2nc3c([N+](=O)[O-])ccc(NCCN(C)C)c3c(N)c2c1` was inactive: 1.38 µM.

For the compound `NS(=O)(=O)c1ccc(NC(=S)NC(=O)Nc2ccc(Cl)c(Cl)c2)cc1`, the GI50 was inactive: 16.4 µM. Consider `CC1(C)CC(c2c[nH]c3ccccc23)=CC2=Nc3ccccc3C21O` (configuration not stated), for which the GI50 was inactive: > 100 µM. For `CC(=O)OCC1OC(N2C(=O)[C@@H](Oc3ccccc3)[C@H]2/C=C/c2ccccc2)C(OC(C)=O)C(OC(C)=O)C1OC(C)=O` (some centres not stated), the GI50 is inactive: > 100 µM.

With `CN1CCc2c(sc3ncn(C)c(=N)c23)C1`, the GI50 was inactive: > 100 µM. The same measure for `CC1(C)OCC(C2OC(OC(=O)c3ccc(C(F)(F)F)cc3)C3OC(C)(C)OC23)O1` (configuration not stated): inactive: > 77.4 µM. For `O=C1C=CC(=O)c2c1ccc1c3ccccc3n(-c3ccccn3)c21`, the GI50 is inactive: > 100 µM. As for `CSc1cnn(CCC#N)c(=O)n1`, the GI50 was inactive: > 100 µM. In the case of `CCOC(=O)C1C(c2cc(OC)c(O)c(OC)c2)c2cc3c(cc2OC1(C)O)OCO3` (configuration not stated), the GI50 is inactive: > 100 µM.

As for `CC[C@H]1C=CCC[C@@]2(C[C@@H]3CC[C@@H]4[C@H](C(=O)OCCCCCCCCCCCCCCCC(=O)N(CCCNC(C)=O)C[C@H](CCNC(C)=O)OC(C)=O)[C@]5(CCC[C@@H](C)O5)NC(=[N+]34)N2)O1`, the GI50 is active: 0.544 µM.

On to `O=C(Nc1ccccc1)Oc1ccccc1C1CCCCC1`, for which the GI50 is inactive: 35.2 µM.

With `COc1nc2c(c(=O)[nH]1)N=C(c1ccc(Cl)cc1)CC(c1ccccc1)N2` (configuration not stated), the GI50 is inactive: 42.4 µM. For the compound `COc1ccc2c(c1)SC1=Nc3sc4cc(OC)ccc4[n+]3CN12`, the GI50 was inactive: 87.9 µM.

As for `C/C(=C/C(=O)Nn1c(Cc2ccccc2)n[nH]c1=O)C(=O)O`, the GI50 was inactive: > 100 µM. For the compound `OCC(O)C(O)C(O)C1SC(c2ccccc2)=NN1c1ccccc1` (configuration not stated), the GI50 is inactive: > 100 µM. The value for `CCOC(=O)C1=NN(c2ccccc2)C(=O)/C1=C\NC(=S)C(N)=S` was inactive: 56.8 µM.

As to `COc1ccc(/C(Cl)=C(\C=O)c2ccc(OC)c(OC)c2)cc1OC`, the GI50 was inactive: 99.5 µM. The same measure for `S=C1N=C(Cl)/C(=C\c2ccccc2)N1`: inactive: > 100 µM. For `Cc1ccc(NC(=O)/C(Cc2cc(=O)oc3cc(O)ccc23)=N\NC(=O)C[N+](C)(C)C)cc1C`, the GI50 was inactive: > 100 µM. As for `CC1CC(c2ccccc2)=Nc2ccccc2S1` (configuration not stated), the GI50 was inactive: > 100 µM. Regarding `O=C1NC(N2CCCC(CO)C2)=N/C1=C\c1ccc(O)cc1` (configuration not stated), the GI50 was inactive: > 100 µM. The same measure for `Cc1cc(NC(=O)NC(=O)c2ccccc2N)ccc1Oc1ncc(Br)cn1`: active: 0.0255 µM; for `CC(=O)OC1COC(N2c3ccccc3[C@@H]3CCc4c([nH]c5ccccc45)[C@@H]32)C(OC(C)=O)C1OC(C)=O.CC(=O)OC1COC(N2c3ccccc3[C@H]3CCc4c([nH]c5ccccc45)[C@H]32)C(OC(C)=O)C1OC(C)=O` (some centres not stated): inactive: > 100 µM. Regarding `CN1C(=O)C(/C=N/NC(=O)c2cccnc2)C(N)N(C)C1=O` (configuration not stated), the GI50 is inactive: > 100 µM.

In the case of `CC(C)[C@H](O)C(=O)N[C@H]1Cc2ccc3c(c2)[C@]24C5=C(N=C(O5)[C@H](C(C)C)NC1=O)c1nc(Cl)c(o1)-c1c(Cl)[nH]c5cccc(c15)-c1cccc2c1N[C@H]4O3`, the GI50 was active: 0.0193 µM. The same measure for `O=C(Oc1c(Cl)cc(C2(c3cc(Cl)c(OC(=O)c4ccccc4)c(Cl)c3)CCCCC2)cc1Cl)c1ccccc1`: inactive: 12.9 µM; for `CCOC12SC(Nc3ccc(C)cc3)=NN1C(=S)N(C)N=C2C` (configuration not stated): inactive: > 100 µM; for `Cc1nc2sc3ccccc3n2c(=O)c1/N=N/c1ccc(Br)cc1`: inactive: > 100 µM. Turning to `Cc1nc(O)c2ncn(CCO)c2n1`, the GI50 was inactive: > 100 µM.

In the case of `CCOC(=O)/C(=C/c1ccc(OC)cc1)N(CC)CC`, the GI50 is inactive: > 100 µM. For `CCOC(OCC)C(CCc1ccccc1)c1c(N)nc(N)[nH]c1=O` (configuration not stated), the GI50 was inactive: > 100 µM. The value for `CSCC(COC(C)=O)(CSC)c1ccncc1` was inactive: > 100 µM; that for `O=c1c2cc([N+](=O)[O-])ccc2[nH]n1Cc1ccccc1Cl` was inactive: > 100 µM.

Regarding `Cc1cc2ccc(N)nc2nc1O`, the GI50 was inactive: > 100 µM. The same measure for `CC(O)c1c2c(cc3c1CC1(C3)Cc3cc4c(c(C(C)O)c3C1)CCC4)CCC2` (configuration not stated): inactive: 22.6 µM; for `Clc1ccc(-c2c(C3=NCCN3)nnn2-c2ccc(Cl)cc2)cc1`: inactive: 18.9 µM; for `N#CC(/C(=N\NC(=O)c1ccncc1)C(=O)Nc1ccc([N+](=O)[O-])cc1[N+](=O)[O-])c1nc(-c2ccc(Br)cc2)cs1` (configuration not stated): inactive: > 100 µM. In the case of `Cc1ccccc1C1=[N+]([O-])c2ccc(Cl)cc2C1=O`, the GI50 is inactive: 20.9 µM. Consider `O=C(O)CC1NC(/C(=C/c2ccccc2O)NC(=O)c2ccccc2)OC1=O` (configuration not stated), for which the GI50 is inactive: > 100 µM.

Turning to `CC(c1ccc2c(c1)CCC1C2CC2OC23CC=CC(=O)[C@]13C)C1C[C@]2(C)O[C@]2(C)[C@H](O)O1` (some centres not stated), the GI50 is inactive: 61.9 µM. For the compound `NC1CSc2ccccc2NC1=O` (configuration not stated), the GI50 was inactive: > 100 µM.

Turning to `CC(=O)Oc1ccc(/C=C/C(=O)NCCOC(=O)/C=C/c2ccc(OC(C)=O)c(OC(C)=O)c2)cc1OC(C)=O`, the GI50 is inactive: 29.9 µM. The same measure for `COc1cc2ccccc2oc1=O`: inactive: 65.3 µM; for `Cc1ccc2c(O)cc(-c3ccc(C)s3)nc2n1`: active: 0.644 µM. The value for `COc1cccc2c1C(=N)c1c(O)c3c(c(O)c1C2=O)C[C@@](O)(C(C)=O)C[C@@H]3OC1CC(N)C(O)C(C)O1` (some centres not stated) was inactive: 3.78 µM. As for `CCN(CC)/[N+]([O-])=N/OCOC(C)=O`, the GI50 is inactive: > 100 µM.
